In PubChem BioAssay AID1240 (Sanford-Burnham Center for Chemical Genomics, 2008):
Among all 50,000 compounds or so, about 800 (1.6%) showed an effect of 50% or more. Some of the results follow.

These compounds were tested against Bcl-2-like protein 10 (Homo sapiens) (UniProt Q9HD36) (assay: Phenotype converters, Bcl-B/TR3 peptide binding displacement, primary biochemical FP (AID 1240;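 further: 0% = Bcl-B with tracer peptide and DMSO and 100% = tracer peptide lacking Bcl-B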)). Settings: GST-Bcl-B / FITC-TR3 peptide fluorescence polarization; stronger effect = higher value; compound at 3.75 mg/L.
Chain of UniProt Q9HD36 (Q9HD36 whole entry, looked up): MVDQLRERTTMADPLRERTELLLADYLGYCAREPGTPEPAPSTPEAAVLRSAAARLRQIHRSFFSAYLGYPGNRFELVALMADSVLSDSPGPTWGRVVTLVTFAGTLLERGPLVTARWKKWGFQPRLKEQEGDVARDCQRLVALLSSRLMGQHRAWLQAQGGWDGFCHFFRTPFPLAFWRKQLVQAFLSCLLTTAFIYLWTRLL

SMILES | displacement
CCOc1ccc(S(=O)(=O)Nc2ccccn2)c2ccccc12 | 15.4%
CN(Cc1ccccc1)C(=O)c1cc2ccccc2o1 | 2.4%
O=C(CC1S/C(=N\N=C\c2ccccc2)NC1=O)Nc1ccccc1Br (stereo not given) | 2.2%
CCOC(=O)C1=C(O)/C(=C\c2ccccc2Cl)N=C1C | 8%
CC(=O)N/C(C)=C1\C(=O)CC2C1C2(C)C (stereo not given) | 17.9%
CCc1ccc(OCCNc2cc(NCC(C)O)ccc2[N+](=O)[O-])cc1 (stereo not given) | 0.7%
CC(C)c1nn2c(N)c(C=C3C=CC(=O)C=C3)c(=O)nc2s1 | -0.1%
COc1cccc(/C=N/NC(=O)C(=O)N2CCCCCC2)c1O | -18.7%
Cc1ccnc(NS(=O)(=O)c2ccc(NC(=O)/C=C/c3ccc(C(C)C)cc3)cc2)n1 | -8.5%
O=C(/C=C/c1ccc2ncccc2c1)c1c(-c2ccccc2)c2cc([N+](=O)[O-])ccc2[nH]c1=O | 8.7%
COC(=O)c1ccc(/C=C2\C(=O)NC(=O)N(c3cccc(Br)c3)C2=O)cc1 | 4%
O=C(Nc1cc(C(F)(F)F)ccc1Cl)c1ccc2c(c1)OCO2 | 6.3%
O=P(O)(CP(=O)(O)c1ccccc1)c1ccccc1 | 14.1%
CCOC(=O)C1=C(O)/C(=C/c2cccnc2)SC1=Nc1cccc(Cl)c1 | 2.1%
COc1cc(NC(=O)CCN2C(=O)c3ccccc3C2=O)c(OC)cc1Cl | -3.4%
O=C(NCc1ccccc1)c1ccc2c(c1)OCCO2 | -9%
Brc1ccc(OCCOc2ccc(/C=N/n3cnnc3)cc2)cc1 | -10.8%
CCCCc1ccc(CCCCC(=O)O)s1 | -5.1%
COc1ccc2ccccc2c1-c1nnc2ccc(C(F)(F)F)cn12 | 19.1%
Cc1ccc(-n2c(C)cc(/C=N/NC(=O)c3cccnc3)c2C)cc1C | -27%
CCOc1ccc(NC(=O)CN(c2ccc(C)cc2)S(C)(=O)=O)cc1 | 4.2%
CN(C)c1ccc(/C=N/n2cnc3sc4c(c3c2=O)CCCC4)cc1 | 2.6%

SMILES | displacement
CC(=O)Nc1cc(-c2ccc(C)cc2)[nH]n1 | 9%
CCOC(=O)c1ccc(NC(=O)CN(c2ccccc2CC)S(C)(=O)=O)cc1 | 2.7%
O=C(NCCCn1ccnc1)c1cccc([N+](=O)[O-])c1 | 9%
CC(CCC(=O)Nc1nc2ccccc2s1)CC(=O)Nc1nc2ccccc2s1 (stereo not given) | 4.4%
COc1cc(/C=C2/C(=O)N(c3ccc(Cl)c(Cl)c3)N=C2C)ccc1OC(C)=O | 10.1%
Cc1ccc(C(=O)N2CCN(c3ccccc3)CC2)o1 | 5.1%
CNC(=O)C(=O)NCCN1CCN(C(=O)c2cccc([N+](=O)[O-])c2)CC1 | -7.9%
CC1=C(C(=O)OCc2ccccc2)C(c2ccc([N+](=O)[O-])cc2)CC(=O)N1 (stereo not given) | -16.1%
CCOC(=O)c1ccc(NC(=S)NC(=O)c2ccc(Cl)cc2)cc1 | 35.9%
CCc1ccc(N2CC(C(=O)Nc3ccc(I)cc3)CC2=O)cc1 (stereo not given) | -10.7%
COC(=O)CN1C(=O)Nc2ccc(Br)cc2C1c1ccccc1Cl (stereo not given) | -19.8%
COc1ccc(CN2CCN(C(=O)c3ccccc3)CC2)c(OC)c1OC | -1.5%
COc1cc(/C=C2\SC(=S)N(Cc3ccccc3)C2=O)cc(Br)c1O | -51%
COc1cc(C(=O)Oc2cccc(C(=S)N3CCOCC3)c2)cc(OC)c1OC | -11.2%
CC1(C)CC(N=C(c2ccccc2)c2ccc(O)cc2O)CC(C)(C)N1 | 17.4%
O=C(O)c1ccc(NC(=O)c2cccs2)c(NC(=O)c2cccs2)c1 | -15.1%
COc1cccc(N2C(=O)NC(=O)/C(=C/c3ccc(Br)s3)C2=O)c1 | -28.2%
c1ccc(CCCNCCc2ccc3c(c2)OCO3)cc1 | -13.9%
COc1ccc(CCN(C(=O)c2ccccc2)C2=CC3CCC(C2)N3C)cc1OC (stereo not given) | -5.3%
O=[N+]([O-])c1ccc(N2CCN(S(=O)(=O)c3ccc(Cl)cc3)CC2)c(C(F)(F)F)c1 | 8.3%
CC1(C)CC(=O)C2=C(C1)Nc1ccccc1N(C(=O)Cc1ccccc1)C2c1cccc(F)c1 (stereo not given) | -7.7%
COc1ccc(OC)c(C2NC(=O)NC3=Nc4ccccc4NC(c4ccccc4)=C32)c1 (stereo not given) | 12.3%

SMILES | displacement
COc1ccc(NC(=O)C2CC(C)=C(C)CC2C(=O)O)cc1 (stereo not given) | -1.1%
O=C(Nc1ccc(Cl)cc1)c1ccc([N+](=O)[O-])cc1 | 1.9%
Cc1ccc2c(C)[n+](C)ccn12 | 5.3%
O=[N+]([O-])c1ccc(S(=O)N(c2ccccn2)C2CCCCC2)cc1 (stereo not given) | -7.2%
Cc1cccc(NC(=O)CSc2nsc(SCC(=O)Nc3cccc(C)c3)n2)c1 | 15.1%
O=C(CCc1ccccc1)Nc1cc(Cl)cc(Cl)c1 | 3.5%
NC(=O)c1ccccc1N=Cc1ccc(Cl)c([N+](=O)[O-])c1 | 1%
O=[N+]([O-])c1ccc(Cc2ccncc2)cc1 | 10%
CN1C(=O)/C(=C\c2ccccc2OCc2ccc(Cl)cc2)SC1=S | 2.3%
COCCNC(=O)CN(c1ccc(OC)cc1OC)S(C)(=O)=O | 0%
COc1cc(C=NCC2(c3ccccc3)CCCC2)ccc1OC(C)=O | -1%
CC(C)CN1C(=O)c2ccc(C(=O)Nc3nccs3)cc2C1=O | -11.9%
C=CCOc1ccc(/C=C/C(=O)c2ccc(Cl)cc2)cc1OC | -1.3%
COc1cc(OC)c(C(=O)N2CC(=O)Nc3ccccc32)c(OC)c1 | 4.9%
CCN(CC)C(=O)CSc1nsc(SCC(=O)N(CC)CC)n1 | 1.8%
Cc1ccc(NC(=O)CCC(=O)NCCO)cc1 | -5%
O=C(Nc1ccccc1[N+](=O)[O-])c1ccc(-c2ccccc2)cc1 | 13.6%
CN(C)c1ccc(NC(=O)COc2ccc(Cl)cc2Br)cc1 | -12.1%
CCn1c(SCC(=O)c2ccc(Cl)cc2)nc2sc3c(c2c1=O)CCCC3 | 15.7%
CCCC(=O)NC(c1ccc(C)cc1)c1c(O)ccc2ccccc12 (stereo not given) | -0.3%
Cc1c(-c2ccc(Cl)cc2)nc2ccccc2c1C(=O)O | -6.5%
O=C(NCCN1CCOCC1)C(=O)NCc1ccc(Cl)cc1 | 2.3%

SMILES | displacement
Cc1cc(NC(=O)c2cccc([N+](=O)[O-])c2C)ccc1Br | -3.3%
Cn1c(=O)c([N+](=O)[O-])c(NCCO)c2ccccc21 | 6.6%
COc1ccc(C(=O)N2CCN(Cc3cccc(C)c3)CC2)cc1OC | -24.7%
COc1ccc(NC(=O)COc2ccc(Cl)cc2Cl)cc1 | -6.1%
COc1ccc(NC(=O)Cn2nc(C)c3ccccc3c2=O)cc1 | -4.1%
COc1cc(/C=N/NC(=O)c2cccnc2)ccc1OS(=O)(=O)c1ccc(F)cc1 | -6.7%
O=C(C1=C(O)C(=O)N(c2nncs2)C1c1ccc(Cl)cc1)c1cccs1 (stereo not given) | 125%
CCOC(=O)c1c(NC(=O)/C=C/c2ccccc2)sc(C)c1C | 9%
O=C(Nc1ccc(Cl)c(Cl)c1)c1cc2ccccc2o1 | 2.9%
O=C1C2C3C=CC(C3)C2C(=O)N1c1ccc([N+](=O)[O-])cc1Br (stereo not given) | 13.2%
Cc1ccc(/C=N/N2CCN(Cc3cccc4ccccc34)CC2)s1 | -7.8%
COc1cc(-c2nc3sc4c(c3c(=O)[nH]2)CCCC4)ccc1OS(=O)(=O)c1ccccc1 | -8.5%
COC(=O)C1=C(C(=O)OC)SC(=C2C(=S)C(C)(C)N(C(=O)C(F)(F)F)c3cc(C)ccc32)S1 | 10.6%
CN1C(=S)N(c2ccccc2)C(C)(O)CC1(C)C (stereo not given) | 13.1%
O=C(O)C1CCCCC1C(=O)NCCc1ccc(F)cc1 (stereo not given) | -2.3%
CSCCC(NC(=O)c1cc(C(C)(C)C)oc1C)C(=O)O (stereo not given) | 6.4%
O=C(Nc1ccc(I)cc1)c1ccc(S(=O)(=O)N2CCCC2)cc1 | 19.5%
C/C(=N\NC(=O)c1cc(-c2ccc3ccccc3c2)n[nH]1)c1cccc([N+](=O)[O-])c1 | -8.8%
Cc1ccc2occ(C(=O)c3ccccc3C)c(=O)c2c1 | 14.4%
CCOC(=O)c1ccc2nc(NC(=O)COC(=O)c3cc4ccccc4o3)sc2c1 | 10.3%
Cc1cc(C(=O)Nc2cccc3ccccc23)c(C)o1 | 12.5%
COc1ccc(C(=O)O/N=C2\CCCc3c2ccc(O)c3C)cc1OC | -8.3%

SMILES | displacement
COc1cccc(N(CC(=O)Nc2ccc(Br)cc2)S(=O)(=O)c2ccccc2)c1 | -1.3%
CCOC(=O)/C(C#N)=C\c1ccc(-c2ccc(Cl)cc2)o1 | -2.4%
CCC(C)C(C(=O)Nc1ccc(C(=O)OC)cc1)N1C(=O)c2ccccc2C1=O (stereo not given) | 9.7%
COC(=O)c1cc(C(=O)Nc2cc(C(F)(F)F)ccc2Cl)cc([N+](=O)[O-])c1 | -5.7%
C=CCNC(=O)c1ccc(-c2cccc([N+](=O)[O-])c2)o1 | 4.3%
O=C(NCCCNc1ccc([N+](=O)[O-])cc1)c1ccc(Cl)cc1 | 1.2%
O=C1CN(C(=O)c2ccc(Cl)c([N+](=O)[O-])c2)c2ccccc2N1 | 4.8%
COc1cc(Br)cc(/C=C2\C(=O)NN(c3ccccc3)C2=O)c1O | 0.3%
O=C1OC(c2cccc(Cl)c2)=N/C1=C\c1ccccc1[N+](=O)[O-] | 7%
CCC(C)c1c(O)nc(SCC(=O)Nc2nc3ccccc3s2)[nH]c1=O (stereo not given) | -11.6%
Nc1ccc(C2CC(=O)NC(=O)N2)cc1 (stereo not given) | 4.4%
O=c1nc(/C=C/c2cccc3ccccc23)cc(C(F)(F)F)[nH]1 | 49.7%
Nc1nnc(SCc2ccc([N+](=O)[O-])cc2)s1 | 13%
CC(Oc1ccccc1)C(=O)N1CCN(Cc2ccccc2)CC1 (stereo not given) | 16.5%
COc1ccc(C(=O)Nc2ccccc2)cc1NC(=O)c1ccc(Cl)c(Cl)c1 | 0%
CCOC(=O)/C(C#N)=C/c1[nH]c2ccccc2c1OC(C)=O | 11.2%
COC(CNS(=O)(=O)c1ccccc1)c1ccccc1 (stereo not given) | 10%
O=c1cc(-c2ccccc2)[nH]n1-c1ccccc1 | 13.6%
C=C(C)COc1ccc2oc(-c3ccccc3)c(C(=O)O)c2c1 | 8.8%
CCn1c(-c2ccccc2Br)n[nH]c1=S | -7.2%
CCOc1ccccc1NC(=O)c1c(NC(=O)c2ccc(C)cc2)sc2c1CCC2 | -8.4%
Cn1c(=O)c2c(nc(Sc3nc4ccccc4o3)n2C)n(C)c1=O | 10.7%
